Screen size: about 310,000 compounds; about 14,000 (4.5%) showed an effect of 50% or more. The effect is printed as a negative number. This is one part of the list.
The compounds below were run against human ether-à-go-go-related gene (hERG) potassium channel (human, UniProt Q12809) (assay: primary screen, population patch clamp on CHO cells stably expressing hERG).
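Also: peak tail current of the secondary pulse compared with the same well before compound.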

Chain of human ether-à-go-go-related gene (hERG) potassium channel (Q12809 whole entry, looked up): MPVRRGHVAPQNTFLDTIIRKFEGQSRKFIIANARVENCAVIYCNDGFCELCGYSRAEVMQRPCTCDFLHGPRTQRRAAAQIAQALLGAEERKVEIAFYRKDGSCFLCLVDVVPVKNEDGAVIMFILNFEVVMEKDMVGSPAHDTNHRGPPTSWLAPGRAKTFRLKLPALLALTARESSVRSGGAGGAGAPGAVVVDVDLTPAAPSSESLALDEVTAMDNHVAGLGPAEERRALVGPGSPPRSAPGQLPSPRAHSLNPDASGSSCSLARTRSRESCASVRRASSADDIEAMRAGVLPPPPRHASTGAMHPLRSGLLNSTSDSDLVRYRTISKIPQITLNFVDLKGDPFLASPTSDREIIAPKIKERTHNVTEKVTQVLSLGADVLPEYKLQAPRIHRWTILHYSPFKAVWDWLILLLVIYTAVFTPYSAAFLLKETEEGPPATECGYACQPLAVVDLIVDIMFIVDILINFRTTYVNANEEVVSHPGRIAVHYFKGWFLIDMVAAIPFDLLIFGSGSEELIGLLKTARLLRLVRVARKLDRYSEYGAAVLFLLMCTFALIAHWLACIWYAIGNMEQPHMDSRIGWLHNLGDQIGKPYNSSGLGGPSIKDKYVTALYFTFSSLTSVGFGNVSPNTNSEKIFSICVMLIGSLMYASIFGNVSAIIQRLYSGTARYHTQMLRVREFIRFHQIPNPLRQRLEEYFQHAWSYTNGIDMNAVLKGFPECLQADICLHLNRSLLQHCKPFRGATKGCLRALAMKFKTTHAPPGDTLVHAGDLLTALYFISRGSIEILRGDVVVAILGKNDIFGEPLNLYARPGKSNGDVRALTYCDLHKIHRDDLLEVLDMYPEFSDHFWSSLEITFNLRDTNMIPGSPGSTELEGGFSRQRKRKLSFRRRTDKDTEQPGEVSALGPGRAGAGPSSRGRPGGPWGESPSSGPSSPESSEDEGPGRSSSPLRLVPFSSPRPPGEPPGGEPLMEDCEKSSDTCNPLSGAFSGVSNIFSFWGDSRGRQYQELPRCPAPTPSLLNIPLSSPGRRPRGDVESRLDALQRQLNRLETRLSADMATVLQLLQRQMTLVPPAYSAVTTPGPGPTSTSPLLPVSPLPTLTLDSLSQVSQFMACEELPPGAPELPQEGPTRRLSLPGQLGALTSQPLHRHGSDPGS

SMILES	hERG current change (%, negative = inhibition) at 10uM [%]
O=C(Cc1ccc(Br)cc1)Nc1nc2ccccc2[nH]1	21.6
C[N+]12CCC(CC1)C(C#N)(N1CCOCC1)C2.[I-] (stereo not shown)	17
COc1ccccc1CNC(=O)COC(=O)/C=C/c1cccs1	13.4
COc1cc(-c2nnc(CSc3nnc(Nc4ccc(Oc5ccccc5)cc4)s3)o2)cc(OC)c1OC	-1.89
Cc1nn(Cc2ccccc2)c(Cl)c1C(=O)OC(C)C#N (stereo not shown)	-3.27
O=C(NCCc1ccco1)C(=O)NCC1OCCCN1S(=O)(=O)c1ccc(F)cc1 (stereo not shown)	-2.11
CCOc1cc(/C=N/NC(=O)C(C)Sc2ccccn2)ccc1O (stereo not shown)	-1.63
CCCCCSc1nnc2c(n1)OC(c1cccn1C)N(C(C)=O)c1ccccc1-2 (stereo not shown)	-9.38
NS(=O)(=O)c1ccc(NC(=O)c2cc(-c3cccs3)nc3ccccc23)cc1	-2.93
Cc1ccc(SCCC(=O)OC(C)C(=O)Nc2ccccc2)cc1 (stereo not shown)	-13.8
Cc1noc(C)c1CSCC(=O)N(CC(C)C)c1c(N)n(Cc2ccccc2)c(=O)[nH]c1=O	-3.26
Cn1nnc2c(sc3nc(N4CCOCC4)c4c(c32)CCCC4)c1=O	-2.99
CC(=O)Nc1c(F)cc(Br)cc1F	21.6
N#Cc1cccnc1N1CCN(C(=O)c2ccc3c(c2)S(=O)(=O)c2ccccc2C3=O)CC1	-22.7
CC(C)C[C@H](N)c1nnc(SCC(=O)Nc2ccc(Br)cc2)o1	-4.09
Cn1c(O)c(C(c2ccccn2)c2c(O)n(C)c(=S)[nH]c2=O)c(=O)[nH]c1=S	-3.28
O=C1c2ccccc2NC(c2cccc([N+](=O)[O-])c2)N1O (stereo not shown)	4.72
O=C1CC(N2CCC(c3nc4ccccc4o3)CC2)C(=O)N1Cc1cccs1 (stereo not shown)	-30.9
O=Cc1cn(CC(=O)N2CCOCC2)c2ccccc12	-1.04
O=C(COC(=O)c1ccc(NS(=O)(=O)c2ccc(Br)s2)cc1)NC1CCCC1	-4.82
COc1ccc(CCNC(=O)CN2C(=O)NC(CCSC)C2=O)cc1 (stereo not shown)	14
CN(c1ccc(C(=O)Nc2ccc(F)cc2F)cc1)S(=O)(=O)c1ccccc1	-13.9

SMILES	hERG current change (%, negative = inhibition) at 10uM [%]
COC(=O)CCC(=O)NC1CC(C)(C)Cc2c1cnn2-c1ccccc1 (stereo not shown)	-12
CN=C1SC(CC(=O)Nc2sc(C)c(C)c2C(=O)OC)C(=O)N1C (stereo not shown)	-8.67
CN(C)c1cc(-c2ccc(Cl)c(Cl)c2)oc(=O)c1Cl	12.7
COc1cccc(/C=C2\SC(=S)N(CC(=O)N(C)C3CCS(=O)(=O)C3)C2=O)c1 (stereo not shown)	1.18
COC(=O)c1c(NC(=O)c2ccccc2OC)sc(C(=O)N2CCOCC2)c1C	-10.2
CCN(CC)S(=O)(=O)c1cc(C(=O)OCC(=O)Nc2cccc(S(=O)(=O)N(C)C)c2)ccc1F	6.73
O=C(Nc1ccc2c(c1)OCCO2)C1CCN(C(=O)c2ccc(Br)cc2)CC1	-52.7
CC1CCCCN1S(=O)(=O)c1ccc(C(=O)Nc2ccccc2-c2nc3ccccc3[nH]2)cc1 (stereo not shown)	15.9
CN1C(=O)c2ccc(S(=O)(=O)c3ccc(C(=O)O)cc3)cc2C1=O	3.09
CN1C(=O)[C@@H]2C[C@@]3([C@@]45C[C@H]6C(=O)N(C)[C@@H](Cc7ccccc7)C(=O)N6[C@@H]4Nc4ccccc45)c4ccccc4N[C@H]3N2C(=O)[C@@H]1Cc1ccccc1	-41.6
CC1(C)Cc2c(sc3c2c(=O)n(-c2ccc(Cl)cc2)c(=O)n3CC(N)=O)CO1	-5.38
CCOC(=O)N1CCC(=NNc2ncc(C(F)(F)F)cc2Cl)CC1	8.95
c1ccc(NCc2cccnc2)cc1	12.1
CN(C)c1ccc(/C=C/C=N/Nc2nc(N3CCOCC3)nc(N3CCOCC3)n2)cc1	0.992
O=C(Nc1ccccc1)C1=C[C@H](C2CCCCC2)C[C@H](OCCCCO)O1	-16.9
CC(NC(=O)CSc1nc2sc3c(c2c(=O)n1-c1ccccc1)CCCC3)c1ccccc1 (stereo not shown)	7.87
Cc1nn(-c2ccccc2)c(C)c1C(=O)OC(C)C(=O)NC1CCCCC1C (stereo not shown)	-18
CC1CN(C(=O)Cn2c(C(F)(F)F)nc3ccccc32)CC(C)O1 (stereo not shown)	17.2
COCC(C)NCc1cccc2ccccc12.O=C(O)C(=O)O (stereo not shown)	-0.173
CCOc1ccc(NC(=O)C(=O)N/N=C/c2cccnc2)cc1	5.63
Cn1cc(C(=O)N/N=C/C(Br)=C/c2ccccc2)ccc1=O	5.93
CCOc1ccccc1OCCCC(=O)N1CCN(S(=O)(=O)c2ccc(C)cc2)CC1	-9.22

SMILES	hERG current change (%, negative = inhibition) at 10uM [%]
COc1cccc(OCCNC(=O)c2cccc(OC)c2)c1	-1.4
Cc1cc(SCc2ccc([N+](=O)[O-])cc2)nc(=O)[nH]1	-9.09
Cc1ccc(CNC(=O)c2ccc(S(=O)(=O)N(C)C)cc2)n1C	19.8
COc1cc(/C=N/NC(=O)c2ccc(O)cc2)ccc1OCC(=O)N1CC(C)OC(C)C1 (stereo not shown)	2.48
CN(C)c1ccc(S(=O)(=O)NCC(=O)NCCOc2ccccc2F)cc1[N+](=O)[O-]	-7.99
O=C(Nc1cccc(NC(=O)c2ccco2)n1)c1ccco1	-39.8
CCN1C(=O)[C@H]2[C@@H](c3ccc(OC)cc3)N3C(=O)CN(Cc4ccccc4)C(=O)[C@@]3(Cc3ccccc3)[C@H]2C1=O	2.79
CC(=O)c1ccc(N2C(=O)C3C4C=CC(CC4)C3C2=O)cc1 (stereo not shown)	13.6
C=CCN1C(=O)C(O)=C(C(C)=O)C1c1ccccc1F (stereo not shown)	9.39
CCOC(=O)N1CCN(C(=O)C(C)N(c2ccc(Oc3ccccc3)cc2)S(C)(=O)=O)CC1 (stereo not shown)	-45.5
CC(C)(C)CC(=O)Nc1cc2c3c(c1)CCC(=O)N3CCC2	-1.96
CCCNC(=O)c1c(C)cc(=O)oc1C	-6.11
CCC(c1nnc(SCC(=O)NCCc2ccc(OC)c(OC)c2)n1Cc1ccccc1)N(C)C (stereo not shown)	26.9
O=C(NCCc1ccccc1)c1cccc(N2C(=O)C3CC=CCC3C2=O)c1 (stereo not shown)	-6.15
CCOC(=O)C1=NNC2(CC(=O)N(c3cc(C)cc(C)c3)C2=O)C1 (stereo not shown)	20.6
CCCNC(=O)c1nc(C)n(-c2ccc([N+](=O)[O-])cc2)n1	-30
CC(=O)Oc1ccc(/C=C2\N=C(C3CCCCC3)OC2=O)cc1	13.6
CCOC(=O)C1=C(C)NC(=S)NC1c1ccc(OCC(=O)N2CCCCCC2)cc1 (stereo not shown)	8.3
CCOC(=O)c1[nH]c2ccc(OC)cc2c1NC(=O)CCN1CCCC(C)C1 (stereo not shown)	-36.9
O=C(NNC(=O)c1ccccc1O)c1ccc(Br)cc1	18.2
CCCCOC(=O)N1CCOCCOCCOCCOCC1	-2.3
Cc1ccc(S(=O)(=O)c2cc(C)cc(S(=O)(=O)Nc3ccc(C(=O)O)cc3)c2C)cc1	7.06

SMILES	hERG current change (%, negative = inhibition) at 10uM [%]
O=C(COC(=O)c1ccncc1)NCCCc1ccccc1	8.12
COC(=O)c1ccc(C(=O)OC)c(NC2=NS(=O)(=O)c3ccccc32)c1	-2.09
O=C(O)CCCNC(=O)Nc1ccccc1	20.6
C=CCn1c(SCc2ccc(C#N)cc2)nnc1-c1cccc(Cl)c1	-72.7
O=C(Nc1ccnn1C1CCN(Cc2cccnc2)CC1)c1ccccc1Cl	-37.1
CCCCCCOC(=O)C1=C(C)NC(=O)NC1c1ccc(O)cc1 (stereo not shown)	-5.94
CCN1CCN(c2ccc(S(=O)(=O)N3CCOCC3)cc2NC(=O)CCOc2ccccc2)CC1	-30.3
O=C(COC(=O)c1c(Cl)cccc1Cl)Nc1ccccc1Br	12.3
CCOc1ccc(NS(=O)(=O)c2ccc(C(=O)NCC3(N(C)C)CCCCC3)cc2)cc1	-8.13
CCNc1cc(S(=O)(=O)C(F)(F)F)ccc1N	-0.436
CC(C)CCN(C(=O)c1ccncc1)c1c(N)n(Cc2ccccc2)c(=O)[nH]c1=O	-6.18
O=C(c1ccc(O)c(Cl)c1)N1CCN(S(=O)(=O)c2ccccc2)CC1	10.6
Cn1cccc1Cc1nnc(SCC(=O)N2CCc3ccccc32)n1-c1ccc(F)cc1	-8.37
C=CCOC(=O)/C(=C\C=C\c1ccccc1)NC(=O)c1ccccc1	-10.7
CC(=O)c1ccc(OCCOc2ccc(Cl)c3cccnc23)cc1	10.7
CCc1c(-c2ccccc2)[n+](=O)c2c(n1[O-])CCC2	9.1
CCCc1nc(NCc2ccncc2)c2nnn(Cc3ccccc3F)c2n1	4.43
CCOC(=O)c1ccc2c(c1)NCc1cccc(OC)c1O2	13.4
CSc1nsc(SCC(=O)Nc2ccccn2)n1	12.9

Source: PMC4336329 (PLoS ONE, 2015)
